Laboratory results taken from PubChem BioAssay AID485360 (National Center for Advancing Translational Sciences (NCATS), 2010).
About 1,500 (0.65%) of roughly 230,000 compounds were called active. The shares of active, inactive and inconclusive entries below differ from those in the screen. Calls come from the whole dose curve; as a rule, active = well fitted inhibition curve with a large enough effect; inconclusive = small, poorly fitted or top-dose-only effect; inactive = no such curve, though single readings can be large or run the other way. Potencies beside an inconclusive call are fits to weak or partial responses and may not hold up.

Molecular target: Lethal(3)malignant brain tumor-like protein 1 (Homo sapiens) (UniProt Q9Y468)
Chain of UniProt Q9Y468 (Q9Y468 whole entry, looked up): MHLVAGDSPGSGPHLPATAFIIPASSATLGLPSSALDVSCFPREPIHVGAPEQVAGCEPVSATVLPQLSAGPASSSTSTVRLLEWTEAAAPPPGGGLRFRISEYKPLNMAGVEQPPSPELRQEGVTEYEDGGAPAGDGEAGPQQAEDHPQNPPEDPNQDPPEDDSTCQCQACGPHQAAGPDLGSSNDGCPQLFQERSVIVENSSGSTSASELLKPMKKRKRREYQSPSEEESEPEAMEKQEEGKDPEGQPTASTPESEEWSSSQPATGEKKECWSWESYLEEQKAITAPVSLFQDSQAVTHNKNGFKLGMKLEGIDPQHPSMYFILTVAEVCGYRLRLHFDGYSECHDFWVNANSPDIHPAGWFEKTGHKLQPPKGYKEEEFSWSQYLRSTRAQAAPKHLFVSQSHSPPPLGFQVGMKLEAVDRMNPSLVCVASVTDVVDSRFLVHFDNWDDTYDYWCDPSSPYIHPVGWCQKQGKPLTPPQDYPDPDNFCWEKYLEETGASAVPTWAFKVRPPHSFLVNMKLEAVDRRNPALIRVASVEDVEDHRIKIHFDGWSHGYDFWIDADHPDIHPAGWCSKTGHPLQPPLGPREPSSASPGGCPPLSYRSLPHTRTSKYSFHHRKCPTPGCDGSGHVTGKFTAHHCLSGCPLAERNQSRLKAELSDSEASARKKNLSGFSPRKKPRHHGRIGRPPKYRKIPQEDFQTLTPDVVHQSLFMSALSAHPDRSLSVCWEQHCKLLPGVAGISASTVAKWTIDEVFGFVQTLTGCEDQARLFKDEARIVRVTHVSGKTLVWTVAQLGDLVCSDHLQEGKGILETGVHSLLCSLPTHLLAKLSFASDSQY
Test: qHTS Assay for the Inhibitors of L3MBTL1; note: nearly all actives have a fitted effect of over 60% in size
Conditions: AlphaScreen L3MBTL1–H3K9me1 peptide binding; activity, negative = inhibition: at 57.1 µM (top of the series)
Procedure, shortened: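 AlphaScreen assay: L3MBTL1 (50 nM final) was preincubated 30 min at room temperature with biotinylated H3(1-15)K9me1 peptide (75 nM final), then 30 min with library compounds; streptavidin donor and nickel chelate acceptor beads (10 ug/mL final) added, 30 min dark.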
% is set by controls: 0 for no effect and ±100 for the full control effect; potency is the fitted concentration of half-maximal effect; tags give direction and shape of the fitted curve.

Row | Compound | Potency | activity, negative = inhibition
1 | Cc1cc(C)nc(SCc2n[nH]c(=S)n2C)n1 | inconclusive: 8.91 µM [inhibitor, full curve, poor fit] | –
2 | COc1ccc(/C=C(\C#N)C(=O)NCc2cccnc2)cc1OC | – | inactive: 2.55%
3 | CC(=O)c1sc(N/N=C\c2ccc(N(C)C)cc2)nc1C | – | inactive: -1.15% [at 2.29 µM]
4 | Cc1nc(NC(=O)/C=C/c2ccco2)sc1C | inconclusive: 22.4 µM [inhibitor, single point] | –
5 | O=C(Oc1ccc(Cl)c2cccnc12)c1cccnc1 | inconclusive: 39.8 µM [inhibitor, single point] | –
6 | COc1ccc(OCc2cc(-c3ccc(Cl)cc3)no2)cc1 | – | inactive: 36.1%
7 | O=C(COC(=O)c1ccccc1O)Nc1ncc(Cl)cc1Cl | inconclusive: 28.2 µM [inhibitor, single point] | –
8 | O=C(COc1cccnc1[N+](=O)[O-])c1ccc(Cl)s1 | inconclusive: 25.1 µM [inhibitor, partial curve, poor fit] | –
9 | O=C1c2ccccc2-c2onc3ccc(N4CCCC4)c1c23 | inconclusive: 0.562 µM [inhibitor, full curve, poor fit] | –
10 | Nc1cc(C(=O)OCC(=O)NCC2CCCO2)ccc1Cl (stereo not drawn) | inconclusive: 0.794 µM [inhibitor, single point] | –
11 | O=C(OCC(=O)c1ccc[nH]1)c1ccc(Br)cc1 | – | inactive: -2.87%
12 | CCOC(=O)c1c(NC(=O)C[n+]2ccc(Cc3ccccc3)cc2)sc(C)c1C | – | inactive: -11.3%
13 | COc1ccc(OC)c(Nc2nc(-c3ccc(O)c(O)c3)cs2)c1 | inconclusive: 25.1 µM [inhibitor, partial curve] | –
14 | O=C(O)c1ccc(COc2ccc3ccccc3c2/C=C2/NC(=O)N(Cc3ccc(F)cc3)C2=O)cc1 | inconclusive: 39.8 µM [inhibitor, single point] | –
15 | COc1ccc(CCNC(=O)c2ccc3nc(-c4ccco4)c(-c4ccco4)nc3c2)cc1OC | inconclusive: 28.2 µM [inhibitor, single point] | –
16 | COc1ccc(CN2CCc3c([nH]c4ccccc34)C2)c(OC)c1C | – | inactive: -5.1%
17 | CNC(=O)c1nc(C)n(-c2ccc(Cl)cc2Cl)n1 | – | inactive: -6.71%
18 | CCOc1ccccc1C1C(C#N)=C(N)Oc2cc(C)n(C)c(=O)c21 (stereo not drawn) | – | inactive: 0.828%
19 | Cc1nn(Cc2ccccc2)c(Cl)c1C(=O)NCc1ccco1 | inconclusive: 39.8 µM [inhibitor, single point] | –

Row | Compound | Potency | activity, negative = inhibition
20 | COc1cc(/C=C/[N+](=O)[O-])ccc1OCc1cccc(C(=O)O)c1 | active: 28.2 µM | –
21 | COc1ccc(NC2c3ccccc3C(=O)N2Cc2ccccc2Cl)cc1OC (stereo not drawn) | – | inactive: -11.3%
22 | O=C(CS)Nc1ccc2ccccc2c1 | inconclusive: 39.8 µM [inhibitor, partial curve] | –
23 | CC(=O)N1C(=O)/C(=C2\SC(=S)N(NC(=O)c3ccc(O)cc3)C2=O)c2ccccc21 | inconclusive: 3.55 µM [inhibitor, partial curve] | –
24 | C/C(CCC(C)C)=N\NC(=S)Nc1cc(S(=O)(=O)N2CCOCC2)ccc1N1CCOCC1 | – | inactive: -1.23%
25 | CC1CC(C)CN(CCOCCSc2ccc(Cl)cc2)C1 (stereo not drawn) | inconclusive: 39.8 µM [inhibitor, single point] | –
26 | CCCCNC(=S)NNC(=O)c1csc(C(C)C)c1 | inconclusive: 7.08 µM [inhibitor, single point] | –
27 | S=c1[nH]nc(-c2ccccc2)n1/N=C/C=C/c1ccco1 | inconclusive: 25.1 µM [inhibitor, single point] | –
28 | Cc1ccc(C)c(-n2c3nc(=O)[nH]c(=O)c-3cc3cc([N+](=O)[O-])ccc32)c1 | inconclusive: 35.5 µM [inhibitor, single point] | –
29 | COCCN(C(=O)c1ccc(COc2ccccc2)o1)c1c(N)n(CC(C)C)c(=O)[nH]c1=O | inconclusive: 0.794 µM [inhibitor, single point] | –
30 | C=CCn1c(C(C)NC(=O)c2ccc(C)cc2)n[nH]c1=S (stereo not drawn) | – | inactive: 12.8%
31 | Cn1c(=O)c2[nH]c(Nc3ccccc3)nc2n(C)c1=O | inconclusive: 6.31 µM [inhibitor, single point] | –
32 | O=C(CNC(=O)c1ccccc1F)N/N=C/c1cc(Br)ccc1OC(=O)/C=C/c1ccco1 | inconclusive: 39.8 µM [inhibitor, single point] | –
33 | COC(=O)c1c(C)[nH]c(C(=O)C(C)OC(=O)C2CC(=O)N(c3ccc(C)cc3)C2)c1C (stereo not drawn) | inconclusive: 39.8 µM [inhibitor, single point] | –
34 | COc1ccc(NCC(=O)N/N=C/C=C\c2ccccc2)cc1 | inconclusive: 25.1 µM [inhibitor, partial curve, poor fit] | –
35 | Cc1cc(C)nc(SCc2nnc(SCC(N)=O)o2)n1 | – | inactive: 3.76%
36 | COc1ccc(OC)c(NC(=O)C2C3CCC(C3=C(C)C)C2C(=O)O)c1 (stereo not drawn) | – | inactive: -4.66%
37 | C=CCn1c(Sc2ncc([N+](=O)[O-])s2)n[nH]c1=O | – | inactive: 1.71%
38 | Cc1ccc2c(c1)-c1ncc(C(=O)c3cc(Br)ccc3O)cc1CO2 | inconclusive: 17.8 µM [inhibitor, partial curve] | –
